Test results published in paper PMC3629153.
Results are given in words; binding and its absence hold for the method and conditions named. Binding seen in cells or lysates may run through a third protein. Some results given as binding are weak or reduced against the parent protein; the word gives no strength.

Chains of the proteins cited; added tags and fusions are not shown. Residues count along the entry.
UniProt P08174, residues 35-353: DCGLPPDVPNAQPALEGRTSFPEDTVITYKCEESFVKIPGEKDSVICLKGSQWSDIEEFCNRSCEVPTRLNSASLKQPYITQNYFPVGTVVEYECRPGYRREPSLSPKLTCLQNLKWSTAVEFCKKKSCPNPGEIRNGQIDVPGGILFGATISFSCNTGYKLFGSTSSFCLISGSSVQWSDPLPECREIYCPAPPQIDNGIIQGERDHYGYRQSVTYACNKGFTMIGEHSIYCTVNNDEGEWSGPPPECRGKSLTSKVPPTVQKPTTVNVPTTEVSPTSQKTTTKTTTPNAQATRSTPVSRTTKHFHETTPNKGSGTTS
UniProt P21926: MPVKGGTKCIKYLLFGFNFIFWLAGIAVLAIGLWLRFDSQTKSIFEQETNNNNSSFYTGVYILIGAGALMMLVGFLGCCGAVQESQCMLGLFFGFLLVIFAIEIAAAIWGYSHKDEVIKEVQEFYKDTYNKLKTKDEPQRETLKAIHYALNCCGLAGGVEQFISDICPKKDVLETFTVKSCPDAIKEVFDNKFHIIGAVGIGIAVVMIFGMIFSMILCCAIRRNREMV

Columns and labels:
[1] = target: CD55 (human (endogenous in MDA-MB-231)) (UniProt P08174); assay: co-IP; MDA-MB-231 wild type cells (also CD151si cells) lysed in 1% Brij 58; CD9, CD151, α3 integrin or CD55 immunoprecipitated; blot for PKCα
[2] = target: T1, tetraspanin CD151 (human (endogenous in MDA-MB-231)) (UniProt P48509); assay: as above
T1 sequence: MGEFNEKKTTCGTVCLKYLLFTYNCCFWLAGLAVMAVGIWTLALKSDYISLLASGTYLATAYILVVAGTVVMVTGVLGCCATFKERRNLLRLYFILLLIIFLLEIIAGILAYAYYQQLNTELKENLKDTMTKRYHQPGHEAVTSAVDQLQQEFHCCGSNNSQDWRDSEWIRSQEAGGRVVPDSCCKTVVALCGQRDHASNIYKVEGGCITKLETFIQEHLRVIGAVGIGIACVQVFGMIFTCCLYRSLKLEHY

[3] = target: tetraspanin CD9 (human (endogenous in MDA-MB-231)) (UniProt P21926); assay: as above
[4] = target: CD55 (human (endogenous in MDA-MB-231)) (UniProt P08174); assay: co-IP; MDA-MB-231 wild type cells (also CD151si and CD151RX cells) treated with 100 nM PMA for 30 min, lysed in 1% Brij 99; CD9, CD151, α3 integrin or CD55 immunoprecipitated; blot for PKCα; PMA enhances the α3β1-PKCα association above basal levels
[5] = target: T1, tetraspanin CD151 (human (endogenous in MDA-MB-231)); assay: as above
[6] = target: tetraspanin CD9 (human (endogenous in MDA-MB-231)) (UniProt P21926); assay: as above

## PKCα (from UniProt P17252 1-672) (enzyme)
[1]
  binding: no binding
[2]
  binding: binds
[3]
  binding: binds
[4]
  binding: no binding
[5]
  binding: binds
[6]
  binding: binds
